This is a selection; strong and weak results do not stand in their true shares. Inconclusive results are not listed. The source made the active and inactive calls. The calls were made as follows: active = hit-call score of the fitted dose curve at least 0.9, where 1 is the maximum; inconclusive = response in the unintended direction; inactive = score below 0.9.
The compounds below were run against human Thyroid Receptor alpha (THRa1), THRA (gene 7067) (UniProt P10827) (assay: ATG_THRa1_TRANS: Attagene TRANS-FACTORIAL HepG2 Assay for human Thyroid Receptor alpha (THRa1) (AID 2283014)).
Method in brief: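 Measured here is mRNA from a GAL4-UAS reporter in transfected HepG2 cells carrying a Gal4-fused receptor, 24 h post-dose. DMSO served as negative control and baseline.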
`CC(C)c1ccc(O)c(C(C)C)c1` was tested, and the outcome was “inactive”. In the case of `CC(Cc1ccc(O)c(O)c1)C(C)Cc1ccc(O)c(O)c1` (stereo not given), the outcome is reported as “inactive”. For `CCN=C1C=CC(=C(c2ccc(N(CC)CC)cc2)c2ccc(N(CC)CC)cc2)c2ccccc21`, the outcome was “inactive”.

The compounds below were run against human Vitamin D Receptor (VDR), VDR (gene 7421) (UniProt P11473) (assay: ATG_VDR_TRANS: Attagene TRANS-FACTORIAL HepG2 Assay for human Vitamin D Receptor (VDR) (AID 2283022)).
Method in brief: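 Multiplexed TRANS reporter in HepG2; 24 h treatment; reporter mRNA by RT-PCR plus capillary electrophoresis; upregulation scored relative to DMSO.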
`CC(C)c1ccc(O)c(C(C)C)c1` was tested, and the outcome was “inactive”. For `C[C@]12CC[C@@H]3c4ccc(O)cc4CC[C@H]3[C@@H]1CC[C@@H]2O`, the outcome was “inactive”. `CCCCCCCCCCCCN1CCOCC1` was tested, and the outcome was “inactive”. For `[Cl][Bi]([Cl])([c]1ccccc1)([c]1ccccc1)[c]1ccccc1`, the AC50 was active: 3.69 µM. In the case of `c1ccc(Nc2cccc3ccccc23)cc1`, the outcome is reported as “inactive”. `C=C(c1ccc(C(=O)O)cc1)c1cc2c(cc1C)C(C)(C)CCC2(C)C` was tested, and the outcome was “inactive”. In the case of `S=C([S-])NCCNC(=S)[S-].[Mn+2]`, the outcome is reported as “inactive”.

Reference: PubChem BioAssay (EPA / NIEHS)
